According to the supplement of paper PMC9135407:
Where “and” joins values, the source holds several entries; their conditions need not be identical. Equal entries are not always repeated. Structures can show the parent of a compound that is named as a salt. The campaign covered roughly 5,800 compounds. About 620 (11%) showed activity.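 The calls were made as follows: active = score above a cut-off or among the top three wells of a plate; in these data no inactive exceeds 0.85.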 The entries are a selection whose mix differs from that of the whole data set.

System: primary human hepatic stellate cells (donor 1)
Experiment: scaled lipid accumulation score (0 = DMSO-like, 1 = nortriptyline-like); higher = stronger HSC inactivation (lipid re-accumulation), active = hit call of the paper
Details: 48 h
[1] = library stock concentration: 10 mM
[2] = library stock concentration: 1 mM
[3] = library stock concentration: 3.33 mM
[4] = library stock concentration: 2 mM
[5] = library stock concentration: 5.7 mM

NCCCCCc1c[nH]cn1 [Impentamine dihydrobromide]
scaled lipid accumulation score [1]: inactive: ≤ -0.006

Cc1[nH]c(=O)c(C#N)cc1-c1ccc2nccn2c1 [Olprinone hydrochloride]
scaled lipid accumulation score [1]: inactive: ≤ 0

NC(=O)c1cccc(-c2cccc(OC(=O)NC3CCCCC3)c2)c1
scaled lipid accumulation score [2]: inactive: ≤ 0 | scaled lipid accumulation score [3]: inactive: ≤ 0 | scaled lipid accumulation score [1]: inactive: 0.034

CN1CCCC1CCOC(C)(c1ccccc1)c1ccc(Cl)cc1.O=C(O)/C=C/C(=O)O (centres undefined) [Clemastine fumarate]
scaled lipid accumulation score [1]: active: 0.942

CN(C(Cc1ccc(OS(=O)(=O)c2cccc3cnccc23)cc1)C(=O)N1CCN(c2ccccc2)CC1)S(=O)(=O)c1cccc2cnccc12 (centres undefined)
scaled lipid accumulation score [3]: inactive: ≤ -0.009 | scaled lipid accumulation score [1]: inactive: 0.138

CCN(CC)CCOc1ccc(C(=C(Cl)c2ccccc2)c2ccccc2)cc1.O=C(O)CC(O)(CC(=O)O)C(=O)O [Clomid]
scaled lipid accumulation score [1]: active: 0.963

COc1cc(OC2CCN(C)CC2)ccc1Nc1ncc2c(n1)n(C1CCCC1)c(=O)n2C
scaled lipid accumulation score [1]: active: 1.06

Cn1cnc2c(F)c(Nc3ccc(Br)cc3F)c(C(=O)NOCCO)cc21
scaled lipid accumulation score [3]: inactive: ≤ 0 | scaled lipid accumulation score [1]: inactive: ≤ -0.001

C#Cc1cccc(Nc2ncnc3cc(OCCOC)c(OCCO)cc23)c1
scaled lipid accumulation score [3]: inactive: ≤ 0 | scaled lipid accumulation score [1]: inactive: ≤ 0

O=Nc1ccc2oc(=O)ccc2c1 [6-Nitroso-1,2-benzopyrone]
scaled lipid accumulation score [1]: active: 0.9

CC(C)(C)CC(C)(C)c1cc(Cc2cc(C(C)(C)CC(C)(C)C)cc(-n3nc4ccccc4n3)c2O)c(O)c(-n2nc3ccccc3n2)c1
scaled lipid accumulation score [1]: inactive: ≤ 0

NC(=O)c1cnccn1
scaled lipid accumulation score [1]: inactive: ≤ 0

NC(=O)c1cnccn1 [Pyrazinamide]
scaled lipid accumulation score: inactive: 0.028 | scaled lipid accumulation score [3]: inactive: ≤ 0 | scaled lipid accumulation score [1]: inactive: 0.036 and inactive: ≤ 0 | scaled lipid accumulation score (library stock concentration: 16.2 mM): inactive: ≤ 0

NC(=O)c1cnccn1 [Pyrazinecarboxamide]
scaled lipid accumulation score [1]: inactive: ≤ 0

C(=C/CCN(C)C)(/c1c2cccc1)\c3c(cccc3)C=C2.Cl [Cyclobenzaprine hydrochloride]
scaled lipid accumulation score [1]: active: 0.991

Nc1nc(N)c(N=O)c(OCC2CCCCC2)n1
scaled lipid accumulation score [3]: inactive: ≤ -0.009 | scaled lipid accumulation score [1]: inactive: 0.305 and inactive: ≤ 0

Cc1cc2ncc(-c3ccccc3)nc2cc1C
scaled lipid accumulation score [3]: inactive: ≤ 0

c1cn2cc(-c3ccc4cn[nH]c4c3)nc(Nc3ccc(N4CCOCC4)cc3)c2n1 [Entospletinib]
scaled lipid accumulation score [4]: active: 1.2 | scaled lipid accumulation score [1]: active: 1.21

O=C(CCNNC(=O)c1ccncc1)NCc1ccccc1 [Nialamide]
scaled lipid accumulation score: inactive: ≤ 0 | scaled lipid accumulation score (library stock concentration: 6.7 mM): inactive: ≤ -0.006 and inactive: ≤ 0 | scaled lipid accumulation score [1]: inactive: 0.262

O=C(CCNNC(=O)c1ccncc1)NCc1ccccc1
scaled lipid accumulation score [1]: inactive: ≤ 0

CCCn1c(=O)c2[nH]c(C3CCCC3)nc2n(CCC)c1=O [8-Cyclopentyl-1,3-dipropylxanthine]
scaled lipid accumulation score [1]: inactive: 0.072

CCCn1c(=O)c2[nH]c(C3CCCC3)nc2n(CCC)c1=O
scaled lipid accumulation score [1]: inactive: 0.039

Cc1ccc(S(=O)(=O)/C=C/C#N)cc1
scaled lipid accumulation score [1]: active: 0.931

Nc1ccc(-c2ccc3ncc4ccc(=O)n(-c5cccc(C(F)(F)F)c5)c4c3c2)cn1 [Torin 2]
scaled lipid accumulation score [3]: inactive: ≤ 0 | scaled lipid accumulation score [1]: inactive: 0.002

Nc1ccc(-c2ccc3ncc4ccc(=O)n(-c5cccc(C(F)(F)F)c5)c4c3c2)cn1 [Torin2]
scaled lipid accumulation score (library stock concentration: 80 uM): inactive: ≤ 0 | scaled lipid accumulation score (library stock concentration: 400 uM): inactive: ≤ 0 | scaled lipid accumulation score [4]: inactive: ≤ 0 | scaled lipid accumulation score [1]: inactive: 0.042

Cc1nc2ccccn2c(=O)c1CCN1CCC(C(=O)c2ccc(F)cc2)CC1
scaled lipid accumulation score [1]: inactive: 0.203

Cc1nc2ccccn2c(=O)c1CCN1CCC(C(=O)c2ccc(F)cc2)CC1 [Pirenperone]
scaled lipid accumulation score: inactive: 0.206 | scaled lipid accumulation score (library stock concentration: 5.1 mM): inactive: ≤ 0 | scaled lipid accumulation score [1]: inactive: ≤ 0 and inactive: 0.072

Cl.O=C(CCCCCN1CCN(c2ccccc2-c2ccccc2)CC1)NC1CCCc2ccccc21 (centres undefined) [LP 12 hydrochloride hydrate]
scaled lipid accumulation score [1]: active: 0.898

CSc1nc2cc(Cl)c(Oc3cccc(Cl)c3Cl)cc2[nH]1
scaled lipid accumulation score [1]: inactive: ≤ 0

CSc1nc2cc(Cl)c(Oc3cccc(Cl)c3Cl)cc2[nH]1 [Triclabendazole]
scaled lipid accumulation score [3]: inactive: ≤ 0 | scaled lipid accumulation score [1]: inactive: ≤ -0.001

N[C@@H](Cn1ccc(=O)n(Cc2ccccc2C(=O)O)c1=O)C(=O)O
scaled lipid accumulation score [1]: inactive: ≤ -0.001 and inactive: 0.039

CC[P](CC)(CC)=[Au][S][C@@H]1O[C@H](COC(C)=O)[C@@H](OC(C)=O)[C@H](OC(C)=O)[C@H]1OC(C)=O [Auranofin]
scaled lipid accumulation score (library stock concentration: 2.9 mM): active: 0.86

CCCCC[C@H](O)/C=C/[C@@H]1[C@@H](C/C=C\CCCCCC(=O)O)[C@@H](O)C[C@H]1O [1a,1b-dihomo Prostaglandin F2.alpha.]
scaled lipid accumulation score [2]: inactive: ≤ 0

CCCCC[C@H](O)/C=C/[C@H]1[C@H](O)CC(=O)[C@@H]1C/C=C\CCCC(=O)O [Prostaglandin E2]
scaled lipid accumulation score [2]: inactive: ≤ 0 | scaled lipid accumulation score [1]: inactive: ≤ -0.001

CCCCC[C@H](O)/C=C/[C@H]1[C@H](O)CC(=O)[C@@H]1C/C=C\CCCC(=O)O [Prostaglandin  E2]
scaled lipid accumulation score [2]: inactive: ≤ -0.021

CCCCC[C@H](O)/C=C/[C@H]1[C@H](O)CC(=O)[C@@H]1C/C=C\CCCC(=O)O [Dinoprostone]
scaled lipid accumulation score [5]: inactive: ≤ -0.006

CC1(C)S[C@@H]2[C@H](NC(=O)[C@H](N)c3ccccc3)C(=O)N2[C@H]1C(=O)O [Ampicillin Sodium]
scaled lipid accumulation score [1]: inactive: ≤ 0

CC1(C)S[C@@H]2[C@H](NC(=O)[C@H](N)c3ccccc3)C(=O)N2[C@H]1C(=O)O [Ampicillin Trihydrate]
scaled lipid accumulation score [3]: inactive: ≤ 0 | scaled lipid accumulation score [1]: inactive: ≤ -0.001

CC1(C)S[C@@H]2[C@H](NC(=O)[C@H](N)c3ccccc3)C(=O)N2[C@H]1C(=O)O [Ampicillin sodium]
scaled lipid accumulation score [3]: inactive: ≤ 0 | scaled lipid accumulation score (library stock concentration: 5.4 mM): inactive: ≤ -0.001 | scaled lipid accumulation score [1]: inactive: ≤ -0.001 and inactive: ≤ 0

CC1(C)S[C@@H]2[C@H](NC(=O)[C@H](N)c3ccccc3)C(=O)N2[C@H]1C(=O)O [Ampicillin trihydrate]
scaled lipid accumulation score: inactive: 0.123 | scaled lipid accumulation score [5]: inactive: 0.028
